# Measurements reported in the supplement of paper PMC3334620.
# In all, about 33,000 sequences were measured (“E-score (-0.5 to 0.5)”: median about -0.016, highest 2% from about 0.31 on). The list shows a part of the results.
# Molecular target: Cst6 (UniProt P40535)
# Experiment: PBM E-score (8-mer binding enrichment) (E-score (-0.5 to 0.5)); higher = stronger / more preferred TF binding; most listed sequences are background and not binding sites
# Settings: protein concentration: 200 nM; construct: GST-DNA-binding domain
# Procedure, shortened: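 Using PURExpress in vitro transcription/translation, GST-tagged yeast transcription factors were made in full-length or DNA-binding-domain form. These were applied at about 100-200 nM to double-stranded universal all-10-mer Agilent arrays, and bound protein was detected with fluorescent anti-GST. Scans were normalised with masliner before the Universal PBM Analysis Suite assigned E-scores to ungapped eight-base words pooled with their reverse complements.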
row,Sequence,PBM E-score
1,GGAAGCCA,-0.394
2,CCGCACCA,-0.0342
3,CCGAGCAA,-0.147
4,CAGATAGA,-0.139
5,CGTAGTGC,0.0646
6,ATAGGCTC,-0.0383
7,CCAAGAGC,-0.16
8,CCGAAACG,-0.0965
9,CCGGGAGA,-0.288
10,CCCCAGTA,-0.279
11,GTCTTAAC,0.14
12,CAATTTAC,0.132
13,CCTCCCAC,-0.255
14,TAATGGTA,0.0266
15,TAATTGCA,0.166
16,ATACCGCC,-0.0536
17,ATCTGGCC,-0.115
18,GTCTTGTA,-0.0135
19,GTCTAGAC,-0.0977
20,ACGAGTTA,0.0712
21,CCCCAAGA,-0.0387
22,GCAGCTTA,-0.106

row,Sequence,PBM E-score
1,CGCTATTC,0.12
2,AATGCCTC,0.117
3,CAGCCGTC,0.0864
4,ATTGTATG,0.0123
5,TAGTAACA,0.153
6,AAATTGTA,0.134
7,GAGACTTA,-0.132
8,AGCCATAA,0.0412
9,AGACATCC,-0.211
10,CTCCATGA,0.166
11,AAGCGTAA,0.061
12,TCAAACGA,0.153
13,GACATATA,0.227
14,CATTTTAC,0.273
15,ATTCATTC,0.26
16,AGGCCCCT,-0.349
17,TACTGCGA,-0.0901
18,CACGGACA,-0.0605
19,CCACCCAC,0.00112
20,AGTGAGGC,0.0167
21,GCCTGCTA,-0.323
22,AGCACGAA,0.0875

row,Sequence,PBM E-score
1,CTTATGCA,0.0897
2,GTAAGTAC,0.14
3,AGGTTCTC,-0.185
4,CTTCGGCA,-0.0407
5,ACCAAATC,0.0665
6,AGATTACC,0.144
7,CGTTCTGA,-0.0627
8,GCAGTTCA,0.0321
9,AGAACTCG,-0.00043
10,CAGGTTTC,0.0251
11,CCGGGTTA,-0.281
12,AAGACCGA,-0.0271
13,AGCGCTAT,0.0975
14,GTGTGCCA,-0.0844
15,CTGTGAGA,-0.0662
16,AAGCGCTC,-0.0595
17,ATTCCTAC,0.131
18,AAGTCAAT,0.0535
19,ATTATCCG,0.145
20,AGTCACGA,0.0257
21,CGTTACTA,0.0598
22,CCGGAGGC,-0.266

row,Sequence,PBM E-score
1,CTCTCACA,0.064
2,CGCATGGC,0.0284
3,GAAAGACA,0.179
4,CGGCAATC,0.0148
5,AGTATTTG,0.0172
6,GATGACGC,0.473
7,AGAGCAAC,-0.086
8,AACGTTAT,0.138
9,ATTGCGGG,-0.0524
10,CCGGATCG,-0.134
11,ACGTAACT,0.413
12,CTCATTCC,-0.0452
13,ACATACCA,-0.166
14,GGTCGGGA,-0.194
15,ACTGTACG,-0.0454
16,CAAGCCAG,-0.114
17,AGCCTATC,-0.0367
18,CAAATGGA,-0.00282
19,CCGTACAA,0.0869
20,CGAGCCAG,-0.192
21,ATAACGTG,0.213
22,ACACTGGT,-0.0535

row,Sequence,PBM E-score
1,AATCCACC,-0.121
2,CAGTTGCG,-0.0514
3,AAGCTAAA,0.0432
4,ACAGTTTG,-0.0844
5,ATTTTGAG,0.202
6,CGGTCACC,0.0497
7,AGCGGGCA,-0.236
8,AACAGCTC,0.0244
9,GCGCCCCA,0.00687
10,AGGAAATG,0.116
11,TAAGTAAA,0.0797
12,AACCGCCT,-0.011
13,ACGATTAT,0.106
14,AGCAGGTG,0.188
15,ATATGAAG,0.148
16,CACTAGCC,0.0103
17,ATGTGCAA,0.0873
18,CACAAAAA,0.236
19,AAAGTTAG,0.12
20,ATGTCGCC,0.0795
21,CATACCAG,-0.0727
